According to the supplement of paper PMC3334620:
The full ranking holds about 33,000 sequences; the median of “E-score (-0.5 to 0.5)” is about -0.035, and the highest 2% start at about 0.35. Some of the results follow.

The sequences below were run against T1, Pdr3 (UniProt P33200) (assay: PBM E-score (8-mer binding enrichment) (E-score (-0.5 to 0.5)); higher = stronger / more preferred TF binding; most listed sequences are background and not binding sites). Details: protein concentration: 200 nM; construct: GST-full length.
T1 sequence: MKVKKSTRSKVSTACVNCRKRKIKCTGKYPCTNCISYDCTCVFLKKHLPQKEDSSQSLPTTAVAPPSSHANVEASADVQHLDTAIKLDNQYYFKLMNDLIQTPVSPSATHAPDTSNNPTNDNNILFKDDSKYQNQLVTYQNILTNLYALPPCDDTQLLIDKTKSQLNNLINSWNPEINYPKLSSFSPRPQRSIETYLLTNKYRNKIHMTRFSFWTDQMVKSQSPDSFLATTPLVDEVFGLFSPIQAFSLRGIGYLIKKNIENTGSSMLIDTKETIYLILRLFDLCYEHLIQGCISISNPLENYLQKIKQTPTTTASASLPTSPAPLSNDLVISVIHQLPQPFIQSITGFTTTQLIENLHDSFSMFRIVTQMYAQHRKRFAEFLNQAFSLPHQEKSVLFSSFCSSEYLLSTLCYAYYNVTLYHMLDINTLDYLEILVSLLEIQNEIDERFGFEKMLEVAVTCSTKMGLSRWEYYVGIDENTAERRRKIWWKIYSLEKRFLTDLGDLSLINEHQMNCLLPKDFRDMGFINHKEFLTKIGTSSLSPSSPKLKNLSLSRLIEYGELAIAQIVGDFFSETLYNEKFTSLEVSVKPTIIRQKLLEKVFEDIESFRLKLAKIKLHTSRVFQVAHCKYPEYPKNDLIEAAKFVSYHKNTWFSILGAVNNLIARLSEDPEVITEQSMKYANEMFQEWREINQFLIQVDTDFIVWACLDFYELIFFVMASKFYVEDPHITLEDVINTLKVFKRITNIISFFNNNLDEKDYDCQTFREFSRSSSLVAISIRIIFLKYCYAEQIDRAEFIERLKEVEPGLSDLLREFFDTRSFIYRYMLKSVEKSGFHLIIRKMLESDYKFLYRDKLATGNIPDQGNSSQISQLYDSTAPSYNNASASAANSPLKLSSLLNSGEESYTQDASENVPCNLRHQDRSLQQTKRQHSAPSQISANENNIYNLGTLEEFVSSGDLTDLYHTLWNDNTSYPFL
Procedure, shortened: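 Yeast transcription factors, full-length or as DNA-binding domains, were expressed with a GST tag using PURExpress in vitro transcription/translation. At about 100-200 nM they were applied to universal all-10-mer Agilent arrays, double-stranded by primer extension on fresh or once-stripped slides. Fluorescent anti-GST detected bound protein, and masliner normalised the scans. E-scores for ungapped eight-base words, pooled with reverse complements, came from the Universal PBM Analysis Suite.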

Sequence	PBM E-score
GAAACTAA	-0.051
GCTATGAA	-0.0316
AACACAAT	-0.139
ATTGTACG	-0.227
GTCCAGTA	-0.0926
CTGCCCCA	-0.045
ATCGGGTG	0.266
ATACACGC	0.00278
TCCACTAA	-0.0222
ACTCCTAA	-0.163
ATAACATA	0.0584
ACTGCGTA	-0.234
CGCCCGAG	0.243
CTGGGTAA	-0.0947
AAGGGCCA	-0.218
CGCGCAAA	0.175
TGGCTACA	-0.214
CAAACAAA	-0.144
AAGGGAGA	-0.111
CACCTTGC	-0.0258
GCTGCATA	0.0166
GATCATGA	-0.0423
CTCATCAC	-0.191
AGCTTTCA	-0.204
ACCCCGAT	0.251

Sequence	PBM E-score
AATGGCCA	-0.0134
AGCGTCGA	-0.0457
CAAACAGC	-0.0858
GGTTGGAC	-0.0822
CGACGGTC	0.0133
AAGTGCTA	-0.324
ACTTTGTC	-0.0363
CCAGCTCA	-0.1
GGGGCGTA	-0.114
CACTACCG	-0.0568
CCGGCTGA	0.311
TCGACACA	-0.116
ATAGAGTA	-0.14
GGTGCGAA	-0.0336
ACAAGCCG	0.174
GAACACGA	-0.0359
GGTTCAAC	0.0125
AAGATAGT	0.107
CCCAGATA	-0.121
ATTGACCG	0.0868
ATCTTATA	-0.0171
ACCATTCA	-0.0491
CAACGCGG	0.271
ACAGCCGC	-0.0218
GAAGGCCA	-0.151

Sequence	PBM E-score
AATAACAA	-0.0439
CACTACTG	-0.149
AAGAAAAG	0.0411
TCGTACAA	-0.211
CCAAGCCA	-0.245
CGTTCATC	-0.0152
ATACGTAC	-0.101
ATTACAGA	-0.00478
AAGAAGTG	0.0153
CAACGTAA	-0.261
ATAATTGC	-0.0324
CGATAAGA	0.153
CGTCTGAG	0.00682
GGTGGCAA	-0.0928
AGAGTTGG	-0.138
CAAGGTAC	-0.25
CATGTCTC	0.0767
CCTACCTC	-0.0483
GTCGGGAA	0.176
CCCCCGTA	-0.278
CTACTGAA	-0.0687
TACTTCAA	-0.129
CGGGCAAG	0.125
CCAAATTC	-0.0566
ATTGTAGG	0.0323

Sequence	PBM E-score
CCCTGGAG	-0.267
AGGGGACA	-0.0627
CTATATTA	0.0664
ATGACCCA	-0.0734
CCCATAGC	-0.0517
AAGGAAGA	-0.2
ACCTGCTG	0.0408
AAACCCGA	0.243
AGGCATGC	0.0433
CCCATGTA	-0.114
CGCGAGAC	-0.0718
AGGAGTTC	-0.115
AACTTCAG	-0.101
GGTTGAAA	-0.0161
AAGTGTAC	-0.178
GTGATTGA	0.0101
CGCAAACC	-0.0602
CCATATTA	0.0462
GAGATAGA	0.00371
TCCATGGA	0.423
GGCCTCTA	-0.32
TAGTGTAA	-0.134
TATGCCCA	-0.124
AAATGCAC	0.0895
ATCAAGTG	-0.0714

Sequence	PBM E-score
CGGGGGAC	0.0849
CAAAGTAG	-0.174
AATCTCCA	-0.15
ACTATAGG	-0.179
ACTTCACC	0.106
AGCTTATA	-0.251
CCCTGAGC	0.00121
CATTGGAA	-0.134
ACCATCAG	-0.0741
CTGGCCTC	0.027
CCTCTAAG	-0.261
GGGCGTAA	-0.122
GACTTCTA	-0.24
AGGCAGAC	-0.248
ACTCGACT	-0.184
GAGCCCAC	-0.0132
CCTGAACA	-0.0865
ACGGTGGA	-0.1
CCTAAGTC	-0.237
AGTGAAAT	-0.0987
CTAGCTGA	-0.165
AGTTATCC	0.234
TGCGGGAA	0.313
GCTCAACC	-0.0735
GAAATTGA	0.0788

Sequence	PBM E-score
AGTAAGAA	0.0631
AAGAGAAA	-0.0428
ACGTGTCC	0.0947
CCAAACAC	-0.0593
GCGTGGGA	-0.113
AACCGCTG	-0.114
AATACCAG	0.0559
GCATTCTA	-0.127
CGAAAGGA	0.19
AAAGCACG	-0.184
CACCCCCA	-0.165
AAGACCTG	-0.155
AAAGCGAG	0.143
GGTGCAAA	-0.105
ATACCAGA	-0.0324
ACCAGACG	-0.157
GGGCCGGA	0.318
ACGTACGA	-0.133
ATGGCGAG	-0.123
CAGCCGTA	-0.0833
AGTATGGA	-0.0283
AGCCCGTG	0.0859
CACGATGA	0.0147
AATCAGGC	0.00832
GTTAAAGA	-0.0407

Sequence	PBM E-score
ACCCTCCT	-0.222
GATTGAGC	0.0166
CAGTAGCA	-0.0689
ATCCAACA	0.0207
CCTGTATC	0.026
GCCGAGTA	0.191
ATGTTGCG	0.091
CATACTAG	0.0883
AGATCAAC	-0.0482
AGGTACCA	-0.0974
ATCTAAGC	-0.3
ACGAGGCC	-0.0311
AACGGGGG	-0.142
ATGGTGTG	-0.197
ACTTCCAC	0.0382
GCTTTCAC	-0.107
AAGGGAAA	-0.124
CCGAAGCG	0.228
AGAGTATC	-0.0375
GGCTTACA	-0.0987
TACGTATA	-0.13
AAGGGACA	-0.254
